Assay results taken from the RNAGym collection of RNA variant scans (doi:10.7554/elife.90254).
The source gives no read counts; variants with many changes may rest on few reads.

B1: OR4K15 (parent)
chain: GUUAACGGUCAUAGGCCAUGGAAACUAGGAGCACCAUUUCGCUGCCAGUGAAGAAAUGAACAAAGAAAAUCUGGGCCAGGCAGGCAUCAAAAGAAAUAGUCUUGCGCUCAACCAGAAAGUCUGUAAUCAUUUUAAGGGUA

Variants of: B1
Experiment: self-cleavage, relative activity (ratio to wild type); higher = more cleavage; in vitro, sequencing; the parent is a self-cleaving ribozyme

Variant	self-cleavage
U19C A64G U72C	0.19
G20A A64G A92G U108A	0.03
U19A U39C A51G A69G	1.06
A22G A27G A64U	0.78
G21A U57C A95G	1.73
A22G A89G U139C	1.14
U19C U38C A54U A56G	0.64
A22G A24G A114G	0.73
G20A U72C A94G	0.24
U19C A68G A125G	0.53
A22G A33G U38A A111G	0.05
U19C A90G G104C	0.01
U19C U57C A86G A89G A98U U132C	0.68
A22G A24G A64G	0.94
U19C A90G A98G	0.22
G21A A90G A92G A116G	0.14
A22G A24G A63U U130C	0
A22G A59C A90G	0.26
A22G A27G A51G A62G A94G	1.24
U19C U38C A47G A63G A95C U102C	1.33
U19C G41A A56G C88U U97C	0.67
U19C G79A U102C	0.12
U19C A89G U131C	0.93
U19G A22G A30G A82G	0.92

Variant	self-cleavage
U19C A22G U49C A91U	1.11
A22G A60G U124C U130C	0.4
A22G A51G A91G A92G A96G U108C U124C U127C	0
U19C U70C A96G A111G	0.01
U19C A55G A95G A111G	0.01
A22G A51U A62G	1.46
G21A A56G A135U	1.54
A22C A54C U130G	0.34
A22G A36U U43A U103C U130C	1.16
A22G A56G C81U	0.46
U19A C32U C71U U103C	0.27
U19C A63G U70C	0.7
U19C U38C U49C	0.33
U19A A92C A96C	0.94
U19G U37C A56G G137A	0.76
G20U A92U A94U A96G U97A A129G	1.67
A22G A63G G123A U127A	1.46
G20A A78U C105A U108A A114G	0.01
U19C U124C A125U	1.05
G20A A47U G136U	1.09
G21U A23U A33U A69G U102C A126G	1.75
G21A A23G A69G U72G U108A A114U	0.02
A22G A33U A36G	0.72
U19A U39C A90G	1.67

Variant	self-cleavage
U19A U103C U108C	0
U19C A30G A52G	0.89
U19C A78G A91G	0.21
A22G A24G U87C	0.93
A22G A78G U97C	0.24
A22G A63G U132C	1.32
A22G A47U U57C A69G U131C	0.6
U19C A24C A55G	2
U19C U57C A59G	1.75
U19C U39C A51G U102C A111G	0
U19C G48U A116U	0.42
A22G A55G A78G	0.2
U19C A47G A59G	0.85
U19A U39C A56G U102C U103C A140G	0.01
A22G A68G U108A	0.02
U19A U37C A47U A55G	1.32
U19C A62U A140G	1.25
U19C A27G U72C U139C	0.4
A22G A52G U108C A114C	0.02
A22G A23G A60U	2.17
G21A U38C A51U	1.55
A22C U100A C113A	0.03
A22G A68G U103C U131C	0.19
G20A A60G A91G A117G	1.02

Variant	self-cleavage
U19A U49C A69G U131C	0.68
U19A U97C G115U	0.07
U19A G84A A114G	0.58
U19C A98G U100C U108C	0.01
A22G A54G A118U	1.37
U19C A94G U108C A140U	0.02
G20A U43C A68G U103C	1.57
A22G A33C A51G A60G U72A	0.46
U19C A22G A63G	1.15
U19C A126U U127C	0.49
U19C U57C A64G A78G A117G	0.4
U19C A22U C25U A69G	1.07
U19C A82G A110G	0.06
U19C A55U A129U	0.76
A22G A54G A78G A95G	0.17
U19C A54G A126G A134G A135G	2.19
U19C A91U A98G	0.65
U19C A59G A60C A82U	0.19
A22G A78G A116G A118G U139A	0.05
U19C A24C G137U	1.16
U19C A30G A66G A69G U72G G74U A86G	0.21
G21A A22G A111G U132C	0
U19C A78G A94G	0.29
A22G A82G A117G G137A	0.68

Variant	self-cleavage
G20A A47G U87A	1.16
U19A C107U U130C	0.01
U19C A47C A92G A118G U120C	0.48
U19C G83A U97A	1.48
U19G A59G A110G	0.19
U19C A62G A86G A89G	1.32
A22G A67G A89G A95G U130C	2.08
A22G A52G C76U	0.28
U19C A62U A89G U102C A134G A135G	2.18
U19A U38C U49C	1.83
U19C G79A A117G	0.13
A22G A30G U72C	0.28
U19C U26C U120C	0.81
U19C U49C A59U A64G	1.1
U19A G28A U70A U122C	0.59
G20A A47G A52G	1.1
G21A U57C G73A	0.14
A22G A30G A116C	0.23
G20U A63G C88U	1.41
A22G A33G A78G	0.15
U19C A111G G115U	0.01
U19C U38C A47G	0.7
A22G A59G A78U A91G	0.09
A22G A47G A52G U103C	0.21

Variant	self-cleavage
U19C U39C A60U	1.53
U19C A60G U87C	0.84
G20U A98U U103C	2.37
U19C U70A A78G A94G G106A	0.02
A22G A33U A64C A92G A98U	0.72
G20A A90G A96U U102A U108A U130C	0.01
A22G A91G U124C	0.24
A22G A64G C76U	0.19
U19C A27G A60G	0.93
A22G A24G A51U U72C A94G A111G	0.08
A22G A59U A110U U132C	1.61
A22G A59G A68G A98G A111G	0
U19A G93A U122C	1.92
A22G A24G A54G U97C A129G	0.26
A22G A68G A89G A118G G137A	0.99
U19C A52G A92G U102A	0.71
A22G A69G A86U	1.19
U19C A55C U100A C109U	0.06
A22G A47G G75A	0.18
U19C U49G A90G	1.24
U19G A23G A51U U130A	0.85
U19C G21U A67G A129U	1.16
U19C A52U A62U	1.25
U19A C40U A82U U97C A117G	0.06

Variant	self-cleavage
U19C U38C U72G U100C	0.31
A22G A62C A94G	0.39
A22G A63G A68G U97G A111U	0.11
A22G A30G A54G	1.02
A22G A54G A56G A64G U87C A111G	0.03
U19C A62C C112A	0.09
A22G A51C A78G U120C	0.27
U19C A24G A64G A140G	1.06
A22G A23G U26C	0.74
A22G A56G U72A	0.14
A22G A30G U102C	1.78
G21U G58U A116G	0.69
U19A U39C G106A U132C	0.01
A22G A52G A86G A96G	1.21
U19C U39A U87C A95G	1.83
A22G A60U U139C	1.55
U19C A68G A118U	0.77
A22G A36G U108C	0.03
U19A U43A U49G A62U A78G A89G C128U	0.13
A22G A66U A67G G84U	0.34
G21C A64G A78G	0.21
U19C U49C A86G	0.45
A22G A67G U120C	0.56
